# This is one part of the list. At the low end of the ranking the order means little.
# Molecular target: T1, GST-Rok-C97-191 (UniProt O34857)
# T1 sequence: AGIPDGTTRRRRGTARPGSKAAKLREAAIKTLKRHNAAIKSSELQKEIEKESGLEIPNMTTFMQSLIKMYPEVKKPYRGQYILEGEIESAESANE
# Assay: protein binding microarray;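 also: rank score from −0.5 (least bound) to 0.5 (best bound)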
# Conditions: Rok is a gene silencer of Bacillus subtilis; high values mean tight binding; most listed sequences are background and not binding sites; double strand, one strand shown
row,Sequence,binding signal
1,AATCTATG,0.135 E-score
2,GAAGCAGC,-0.198 E-score
3,ACATGACC,0.104 E-score
4,GAGTCCAA,0.0506 E-score
5,CCTAATAA,-0.00276 E-score
6,ACGGCATG,-0.193 E-score
7,GCCGGCAA,-0.183 E-score
8,CCCGGGGC,-0.368 E-score
9,CCAACTGA,-0.0233 E-score
10,ACGTCGAC,-0.13 E-score
11,AGTTGTCA,0.0746 E-score
12,AATATAGA,0.309 E-score
13,GATCATCA,-0.126 E-score
14,ACGCGAAT,-0.015 E-score
15,CATAAGAA,0.192 E-score
16,CCTATAGA,0.109 E-score
17,CAGTACCA,-0.12 E-score
18,AGCTATGC,-0.138 E-score
19,AGGACGGA,-0.127 E-score
20,AGCATGCG,-0.0582 E-score
21,CTTTGTAA,0.0958 E-score
22,ACAAACCA,0.0262 E-score
23,ACGTGGGC,-0.0293 E-score
24,GATAATGA,0.226 E-score
25,CAACCCGA,-0.0811 E-score

row,Sequence,binding signal
1,AAGGGATA,0.119 E-score
2,CAGCGTAC,0.0672 E-score
3,CTTTCGCA,-0.0817 E-score
4,ATAATAGA,0.232 E-score
5,GTGATAAC,0.107 E-score
6,CACACTGC,-0.118 E-score
7,CGCTCCAC,-0.137 E-score
8,TACTGAAA,0.00741 E-score
9,CGAATTGC,0.0395 E-score
10,TAACTCAA,0.16 E-score
11,CAGGGGGA,-0.311 E-score
12,AATTATCG,0.277 E-score
13,ACTTGATC,0.0308 E-score
14,AGGTTTTG,0.0456 E-score
15,CTGAGTAC,-0.142 E-score
16,CGGGATCC,-0.12 E-score
17,ATTTCAAC,0.195 E-score
18,AGCGGATC,-0.096 E-score
19,AGGGTACA,-0.0656 E-score
20,CATCATGA,-0.0797 E-score
21,GGATTCCC,-0.265 E-score
22,ATGATAAA,0.228 E-score
23,TATTGCGA,0.173 E-score
24,GGCCGCCC,-0.312 E-score
25,GTTCGGAA,0.0788 E-score

row,Sequence,binding signal
1,GTTCCGGA,-0.09 E-score
2,ACTACTCG,0.159 E-score
3,GGACATGA,-0.135 E-score
4,GATTGGGA,-0.215 E-score
5,TACTGTGA,0.179 E-score
6,AGTTTACC,0.0748 E-score
7,GACGGTCC,-0.3 E-score
8,CCTACTCC,-0.0565 E-score
9,AGCGCTAA,0.161 E-score
10,GACTGTGC,-0.0664 E-score
11,AATCCCTG,-0.0199 E-score
12,GCCGAGGC,-0.0855 E-score
13,ATAAAAGC,0.16 E-score
14,GCGGCACC,-0.306 E-score
15,GTCGAGTA,0.105 E-score
16,GTACACAC,-0.0207 E-score
17,ATGGTGGC,-0.232 E-score
18,TAGGCTAA,0.00458 E-score
19,CGGATCGA,-0.106 E-score
20,AGGCGTGG,-0.0664 E-score
21,CTTGATGC,-0.273 E-score
22,CAAGGTCG,-0.133 E-score
23,CGCTATAC,0.0333 E-score
24,ATGTCGGA,0.122 E-score
25,CAAACGAG,0.0394 E-score

row,Sequence,binding signal
1,AAATGGTC,0.0445 E-score
2,CACGGCGC,-0.177 E-score
3,CACCCCTG,-0.181 E-score
4,AATTTCTA,0.355 E-score
5,TCGGTGCA,-0.0315 E-score
6,ATACATAG,0.371 E-score
7,AAAGGACT,-0.175 E-score
8,CAGATCGC,-0.157 E-score
9,ATGGCGCA,-0.0193 E-score
10,CAGGTTCA,-0.054 E-score
11,ATTTTGTA,0.228 E-score
12,CACTTACC,-0.0895 E-score
13,ACAATGTA,0.227 E-score
14,TGCCGGCA,-0.12 E-score
15,CGACGTCA,7.12e-05 E-score
16,GGAGAAAC,-0.116 E-score
17,CTGCCATC,-0.229 E-score
18,GGACACGA,-0.133 E-score
19,GTAGACAA,-0.0286 E-score
20,CCTAGACG,-0.0529 E-score
21,CTCAGCCA,-0.111 E-score
22,ACAATCGT,0.0333 E-score
23,ACGCACTA,0.294 E-score
24,CCAGCCCA,-0.138 E-score
25,ATCGGAGG,-0.162 E-score

row,Sequence,binding signal
1,AAGTCCAA,-0.179 E-score
2,CTGATATA,0.258 E-score
3,AGCACCGG,-0.209 E-score
4,CACGTATA,0.228 E-score
5,CGCATTCC,-0.0738 E-score
6,CGGCTGAC,-0.144 E-score
7,AGTAAGTA,0.211 E-score
8,CACAGCCG,-0.15 E-score
9,CAAGTTTA,0.068 E-score
10,ATATCGTC,0.124 E-score
11,GTCGATTA,0.0218 E-score
12,CTTCCGGA,-0.215 E-score
13,CGAGTAAA,0.128 E-score
14,AAACCCTT,0.036 E-score
15,CGGTGCCA,-0.302 E-score
16,ACATTACC,0.0874 E-score
17,TCTCAAGA,-0.0714 E-score
18,AACTCTAC,0.183 E-score
19,CAGTGACC,-0.203 E-score
20,CATCAGTC,-0.0234 E-score
21,CGTAACAA,0.0497 E-score
22,GTTAAAGA,-0.039 E-score
23,CATCCCAA,-0.127 E-score
24,ATTATACC,0.228 E-score
25,CCACGTGG,-0.0824 E-score

row,Sequence,binding signal
1,ATTACGGA,0.162 E-score
2,AGGACTAC,-0.116 E-score
3,AATAACAC,0.237 E-score
4,CAAAATCA,0.161 E-score
5,CCATTACC,0.0875 E-score
6,CTAAATCC,0.23 E-score
7,GAAACATA,0.328 E-score
8,ATAGTCGG,0.0309 E-score
9,CCACCTAG,-0.177 E-score
10,GAGGCTCA,-0.0913 E-score
11,ATGCGCTC,-0.148 E-score
12,ATTAGCCG,0.102 E-score
13,GAGCGAGC,-0.189 E-score
14,AGGAGAAA,0.073 E-score
15,CTGTTAAA,0.0207 E-score
16,CACAGAGC,-0.228 E-score
17,CTGTTTTA,0.202 E-score
18,GTTAGGCA,-0.0234 E-score
19,GACGCCGC,-0.162 E-score
20,CGCACTAC,-0.0122 E-score
21,GGGCCGCA,-0.326 E-score
22,ATCATCTA,0.148 E-score
23,GACAATAC,-0.0699 E-score
24,ATTCTTTC,-0.0403 E-score
25,TATACTCA,0.139 E-score

row,Sequence,binding signal
1,CATTACCG,-0.000678 E-score
2,AGGTATGA,0.191 E-score
3,ACGTACTG,0.0188 E-score
4,CGAATTAG,0.279 E-score
5,AAGAACAG,-0.168 E-score
6,ACCGAGCA,-0.0067 E-score
7,GGAGGACA,-0.142 E-score
8,AACTTTCG,0.0449 E-score
9,AAGTGTAG,0.225 E-score
10,ATAGAGGG,-0.121 E-score
11,TCTTCGAA,-0.0497 E-score
12,AGTACCAG,0.0658 E-score
13,GTCCACAC,-0.243 E-score
14,ATATTCGA,0.26 E-score
15,GACTCCGA,0.0131 E-score
16,CTTATGGA,-0.0844 E-score
17,AGCGTCCT,-0.248 E-score
18,GTATACGA,0.162 E-score
19,ACGACATA,0.123 E-score
20,CAGTTTAA,0.0793 E-score
21,GGTGCTGA,-0.0629 E-score
22,AGGTGGAC,-0.27 E-score
